Results from the RNAGym collection of RNA variant scans (doi:10.7554/elife.90254).
Read counts are not given, so values of variants with three or more changes are uncertain.

B1: LINE1-full (parent)
chain: UACGUAGGUGGUUUUCCCCUGAUAGUGCUAAGGGGGCCUGGAAGUUUGGACUGGGCAGAGCUCAACACAGCGUGGCAAAGUGGCUGUGGCUAGACUGCCUCUCUGGAUUCCUCGUCACUCAGCAGGGCAUCUCUGAGAGAAAUGCC

Variants of: B1
Assay: self-cleavage, relative activity (ratio to wild type); higher = more cleavage; in vitro, sequencing; the parent is a self-cleaving ribozyme

Row | Variant | self-cleavage
1 | UACGUAGGUGGUUUUCCCCUGAUAGUGCUAAGGGAGCCUGGAAGUUUGGACUGGGCAGAGCUCAGCACAGCGUGGCAAAGUGGCUGUGGCUAGACUGCCUCUCUGGAUUCCUCGCCACUCAGCCGGGCAUCUCUGAGAGAAAUGCC | 0
2 | UACGUAGGUGGUUUUCCCCUGUUAGUGCUAAGGGGGCCUGGAAGUUUGGACUGGGCAGAGCUCAACACAGCGUGGCAAGGUGGCUGUGGCUAGACUGCCUCCCUGGAUUCCUCGUCACUCAGCGGGGCAUCUCUGAGAGAAAUGCC | 1.53
3 | UACGUAGGUGGUUUUCCCCUGAUAGUGCUAAGGGGGCCUGGAAGUUUGGACUGGGCAGAGCUCAACACAGCGUGGCAAAGUGGCUGUGGCUAGACCGCCUCUCUGGAUCCCUCGUCACUCAGCAGGGCAUCUCUGAGGGAAAUGCC | 0.2
4 | UACGUAGGUGGUUUACCCCUGAUAGUGCUAAGGGGGCCUGGAAGUUUGGACUGGGCGGAGCUCUACACAGCGUGGCAAAGUGGCUGUGGCUAGACUGCCUCUCUGGAUUCCUCGUCACACAGCAGGGCAUCUCAGAGAGAAAUGCC | 0.13
5 | UACGUAGGCGGUUUUCCCCUGAUGGUGCUAAGGGGGCCUGGAAGUUUGGACUGGGCAGGGCUCAACACAGCGAGGCAAAGUGGCUGUGGCUAGACUGCCUCUCUGGAUUCCUCGUCACUCAGCAGGGCAUCUCUGAGAGAAAUGCC | 0.14
6 | UACGUAGGUGGUUUUCCCCUGAUAGUGCUAAGGGGGCCUGGAAGUUUGGACUGGGCAGUGCUCAAUACAGCGUGGCUAAGUGGCUGUGGCUAGACUGUCUCUCUGGAUUCCUCGUCACUCAGCAGGGCAUCUCUGAGAGAAAUGCC | 0.03
7 | UACGUAGGUGGUUUUCCCCUGAUAGCGCUAAGGGGGCCUGGAAGUUUGGACUGGGCAGAGCUCAACACAGCGUGGCAAAGUGGCUAUGGCUAGACUGCCUCUCUGGAUUCCUCGCCACUCAGCAGGGCAUCUCUGAGAGAAAUGCC | 0.06
8 | UACGUAGGUGGUUUUCCCCUGAUAGUGCUAAGGGGGCCUGGAUGUUUGGACUGGGCAGAGCUCAACACAGCGCGGCAAGGUGGCUGUGGCUAGACUGCCUCUCUGGAUUCCUCGUCACUCAGCAGGGCAACUCUGAGAGAAAUGCC | 1.11
9 | UACGUAGGUGGUUCUCCCCUGAUAGUGCUAAGGGGGCCUGGAAGUUUGGACUGGGCAGAGCUCAACACAGCGUGGCAAAGUGGCUGUGGCUAGACUGCCUCCCUGGAUUCCUCGUCACUCAGCAGGGCAUCUCUGUGAGAAAUGCC | 1.43
10 | UACGUAGGUGGUUUUCCCCUGAUAGUGCUAAGGGGGCCUGGAAGUUUGGACUGAGCAGAGCUCAACACAGCGUGGCAAAGUGGCUGCGGCUAGGCUGCCUCUCUGGAUUCCUCGUCACUCAGCAGGGCAUCUCUGAGAGAAAUGCC | 0.05
11 | UACGUAGGUGGUUUUCCCCUGAUAGUGCUAAGGGGGCCUGGAAGUUUGGACUGGGCGGGGCUCAACACAGCGUGGCGAAGUGGCUGUGGCUAGACUGCCUCUCUGGAUUCCUCGUCACUCAGCAGGGCAUCUCUGAGAGAGAUGCC | 0
12 | UACGUAGGUGGUUUUCCCCUGAUAGUGCUAAGGGGGCCUGGAAGAUUGGACUGGGCAGAGCUCAACACAGCGUGGCAGAGUGGCUGUGGCUAGACUGCCUCUCUGGAUUCCUCGUCACUCAGCAGGGCAUCUCUGAGAGGAAUGCC | 1.14
13 | UACGUAGGUGGUUUUCCCCUGAUAGUGCUAAGGGGGCCUGGAAGUUUGGACUGGGCAAAGCUCAACACAGCGUGGCAAAGUGGCUGUGGCUAGACUGCCUCUCCGGAUUCCUCGUCACUCAGCAGGGCAUCCCUGAGAGAAAUGCC | 0.08
14 | UACGUAGGUGGUCUUCCCCUGAUAGUGCUAAGGGGGCCUGGAAGUUUGGACUGGGCGGAGCUCAACACAGCGUGUCAAAGUGGCUGUGGCUAGACUGCCUCUCUGGAUUCCUCGUCACCCAGCAGGGCACCUCUGAGAAAAAUGCC | 0.25
15 | UACGUAGGUGGUUUUCCCCUGAUAGUGCUAAGGGGGCCUGGAAGUUUGGACUGGGCAGAGCACAACACAGCGUGGCAGAGUUGCUGUGGCUAGACUGCUUCUCUGGAUUCCUCGUCACUCAGCAGGGCAUCUCUGAGAGAAAUGCC | 0.02
16 | UGCGUAGGUGGUUUUCCCCUGAUAGAGCUAAGGGGGCCUGGAAGCUUGAACUGGGCAAAGCCCAUCACAGCGUGGCAAAGUGGCUGCGGCUAGACUGCCUCUCUGGAUUCCUCGUCACUCAGCAGGGCAUCUCUGAGAGAAAUGCC | 0.15
17 | UACGUAGGUGGUUUUCCCCUGAUAGUGCUAAGGGGGCCUGGAAGUUUGGUCUGGGCAGAGCUCAACACAGCGCGGCAAAGUGGCUGUGGCUAGACUGCCUCUCUGGAUUCCCCGUCACUCAGCAUGGCAUCUCUGAGAGAGAUGCC | 1.98
18 | UACGUAGGUGGUUUCCCCCUGAUAGUGCUAAGGGGGCCUGGAAGUUUGGACUGGGCAGUGCUCAACACAGCGUGGCAAAGUGGCUGUGGCUAGACUGCCUCUCUGGUUUCCUCGUCACUCAGCAGGGCAUCUCUGAGAGAAAUGCC | 1
19 | UACGUAGGUGGUUUCCCCCUGAUAGUGCUAAGGGGGCCUUGAAGUUUGGACUGGGCAGAGCUCCACACAGCGUGGCAAAGUGGCCGUGGCUAGACUGCCUCUCUGGAUUCCUCGUCACUCAGCAGGGCAUCUCUGAGAGAAAUGCC | 0.08
